# The list shows a part of the results.
# B1: FBG3 (Homo sapiens), Q9H4M3 (protein)
# chain: MAVGNINELPENILLELFTHVPARQLLLNCRLVCSLWRDLIDLVTLWKRKCLREGFITEDWDQPVADWKIFYFLRSLHRNLLHNPCAEEGFEFWSLDVNGGDEWKVEDLSRDQRKEFPNDQVKKYFVTSYYTCLKSQVVDLKAEGYWEELMDTTRPDIEVKDWFAARPDCGSKYQLCVQLLSSAHAPLGTFQPDPATIQQKSDAKWREVSHTFSNYPPGVRYIWFQHGGVDTHYWAGWYGPRVTNSSITIGPPLP
# What was measured:
# Experiment in all cases: glycan array binding signal (z-score within array); higher = stronger binding
# Details in all cases: glycan notation: IUPAC condensed, linker removed
# [1] = biological target: Gal(b1-4)GlcNAc(b1-6)[Gal(b1-3)]GalNAc
# Outline: (§1)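 From the Consortium for Functional Glycomics database, 3228 arrays were curated, keeping only those whose protein sequence was available. Binding is given as a within-array Z-score averaged across arrays sharing a protein sequence and across linkers. Negative Z-scores can be read as non-binding.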
# [2] = biological target: Gal(b1-4)GlcNAc(b1-6)[Gal(b1-3)]GlcNAc
# Outline: as §1
# [3] = biological target: Gal3S(b1-3)GalNAc
# Outline: as §1
# [4] = biological target: Gal3S(b1-3)GlcNAc
# Outline: as §1
# [5] = biological target: Gal3S(b1-3)[Fuc(a1-4)]GlcNAc
# Outline: as §1
# [6] = biological target: Gal3S(b1-4)Glc
# Outline: as §1
# [7] = biological target: Gal3S(b1-4)Glc6S
# Outline: as §1
# [8] = biological target: Gal3S(b1-4)GlcNAc
# Outline: as §1
# [9] = biological target: Gal3S(b1-4)GlcNAc6S
# Outline: as §1
# [10] = biological target: Gal3S6S(b1-4)GlcNAc
# Outline: as §1
# [11] = biological target: Gal3S6S(b1-4)GlcNAc6S
# Outline: as §1
# [12] = biological target: Gal4S(b1-4)GlcNAc
# Outline: as §1
# [13] = biological target: Gal4S6S(b1-4)GlcNAc
# Outline: as §1
# [14] = biological target: Gal6S(b1-4)Glc
# Outline: as §1
# [15] = biological target: Gal6S(b1-4)Glc6S
# Outline: as §1
# [16] = biological target: Gal6S(b1-4)GlcNAc
# Outline: as §1
# [17] = biological target: GalNAc(a1-3)Gal
# Outline: as §1
# [18] = biological target: GalNAc(a1-3)GalNAc
# Outline: as §1
# [19] = biological target: GalNAc(b1-3)Gal(a1-4)Gal(b1-4)GlcNAc
# Outline: as §1
# [20] = biological target: GalNAc(b1-3)GalNAc
# Outline: as §1
# [21] = biological target: GalNAc(b1-4)GlcNAc
# Outline: as §1
# [22] = biological target: Glc(a1-4)Glc
# Outline: as §1
# [23] = biological target: Glc(a1-6)Glc(a1-6)Glc
# Outline: as §1
# [24] = biological target: Glc(b1-4)Glc
# Outline: as §1
# [25] = biological target: Glc(b1-6)Glc
# Outline: as §1
# [26] = biological target: GlcA(b1-3)Gal
# Outline: as §1
# [27] = biological target: GlcA(b1-6)Gal
# Outline: as §1
# [28] = biological target: GlcNAc(a1-3)Gal(b1-4)GlcNAc
# Outline: as §1
# [29] = biological target: GlcNAc(a1-6)Gal(b1-4)GlcNAc
# Outline: as §1
# [30] = biological target: GlcNAc(b1-2)Gal(b1-3)GalNAc
# Outline: as §1
# [31] = biological target: GlcNAc(b1-2)Gal(b1-3)GlcNAc
# Outline: as §1
# [32] = biological target: GlcNAc(b1-2)Man(a1-3)[GlcNAc(b1-2)Man(a1-6)]Man(b1-4)GlcNAc(b1-4)GlcNAc
# Outline: as §1
# [33] = biological target: GlcNAc(b1-3)Gal
# Outline: as §1
# [34] = biological target: GlcNAc(b1-3)Gal(b1-3)GalNAc
# Outline: as §1
# [35] = biological target: GlcNAc(b1-3)Gal(b1-4)Glc
# Outline: as §1
# [36] = biological target: GlcNAc(b1-3)Gal(b1-4)GlcNAc
# Outline: as §1
# [37] = biological target: GlcNAc(b1-3)Gal(b1-4)GlcNAc(b1-3)Gal(b1-4)GlcNAc
# Outline: as §1
binder,measurement,setting,value
B1,glycan array binding signal (z-score),[1],-0.478
same,glycan array binding signal (z-score),[2],-0.504
same,glycan array binding signal (z-score),[3],-0.342
same,glycan array binding signal (z-score),[4],-0.002
same,glycan array binding signal (z-score),[5],0.313
same,glycan array binding signal (z-score),[6],0.096
same,glycan array binding signal (z-score),[7],0.876
same,glycan array binding signal (z-score),[8],0.459
same,glycan array binding signal (z-score),[9],2.99
same,glycan array binding signal (z-score),[10],1.73
same,glycan array binding signal (z-score),[11],7.93
same,glycan array binding signal (z-score),[12],-0.079
same,glycan array binding signal (z-score),[13],1.57
same,glycan array binding signal (z-score),[14],0.072
same,glycan array binding signal (z-score),[15],1.07
same,glycan array binding signal (z-score),[16],1.02
same,glycan array binding signal (z-score),[17],-0.033
same,glycan array binding signal (z-score),[18],-0.456
same,glycan array binding signal (z-score),[19],-0.072
same,glycan array binding signal (z-score),[20],0.557
same,glycan array binding signal (z-score),[21],-0.3
same,glycan array binding signal (z-score),[22],0.004
same,glycan array binding signal (z-score),[23],-0.316
same,glycan array binding signal (z-score),[24],0.304
same,glycan array binding signal (z-score),[25],1.71
same,glycan array binding signal (z-score),[26],-0.025
same,glycan array binding signal (z-score),[27],-0.048
same,glycan array binding signal (z-score),[28],-0.371
same,glycan array binding signal (z-score),[29],-0.134
same,glycan array binding signal (z-score),[30],-0.731
same,glycan array binding signal (z-score),[31],-0.115
same,glycan array binding signal (z-score),[32],-0.403
same,glycan array binding signal (z-score),[33],-0.298
same,glycan array binding signal (z-score),[34],-0.297
same,glycan array binding signal (z-score),[35],-0.262
same,glycan array binding signal (z-score),[36],-0.488
same,glycan array binding signal (z-score),[37],-0.376

# Reference: the supplement of paper PMC8728848
